Laboratory results taken from the supplement of paper PMC3724861.
The list shows a part of the results.

Tested on: T1, Caupolican (Caup) homeodomain DNA-binding domain
T1 sequence: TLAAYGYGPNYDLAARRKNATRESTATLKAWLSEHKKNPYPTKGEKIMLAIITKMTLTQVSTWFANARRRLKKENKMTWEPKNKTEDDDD
Test: PBM E-score (8-mer, recovered from the published 9-mer minima) (E-score (dimensionless, -0.5 to 0.5)); Drosophila protein; higher = stronger relative binding preference, active = 0.31 or more
How it was run: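 Caup's homeodomain DNA-binding domain (residues 214-303) was produced by in vitro transcription and translation and applied at 100 nM to custom-designed protein binding microarrays. Each value is an enrichment score giving relative binding preference for a short DNA word; higher means stronger. Published 9-mer scores were the minimum of their two constituent 8-mer scores, and the 8-mer values were recovered from those minima. A cutoff of 0.31 marks candidate binding sequences.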

Row | Sequence | PBM E-score
1 | ACTGGTAA | inactive: 0.1
2 | GCTCGCCA | inactive: -0.167
3 | GCCGCAGA | inactive: -0.21
4 | CATTTCAG | inactive: 0.00691
5 | ACATTGTA | inactive: 0.302
6 | GGCCACAC | inactive: -0.0674
7 | TCGTTGCA | inactive: 0.0137
8 | TAACAAAA | inactive: 0.119
9 | AAGCCAAT | inactive: 0.0338
10 | CACAGGCG | inactive: -0.13
11 | GCAGATGC | inactive: -0.0883
12 | GTCCGCCA | inactive: -0.0585
13 | TTGCTAAA | inactive: -0.0511
14 | AATGCTTG | inactive: 0.133
15 | GCAAGGCA | inactive: -0.151
16 | GGAAACAC | inactive: 0.197
17 | ACGTGGCT | inactive: -0.0299
18 | AGAGTTGC | inactive: -0.0805
19 | ATATGGCC | inactive: 0.00585
20 | GAAAACTA | inactive: 0.0925
21 | AGCTAAAT | inactive: -0.0262
22 | CGGAGAGC | inactive: -0.177
23 | CGGGCGTC | inactive: -0.237
24 | CTCGATTA | inactive: 0.108
25 | CGATTGTA | inactive: 0.222

Row | Sequence | PBM E-score
26 | ATTGCCTC | inactive: 0.0151
27 | CAAGGGTA | inactive: 0.0428
28 | CATACACC | inactive: 0.15
29 | AGGCTGCC | inactive: -0.295
30 | TATGTTCA | active: 0.324
31 | AACGTTGA | inactive: -0.0105
32 | TGCACCAA | inactive: -0.0498
33 | AACACACG | inactive: 0.248
34 | ACGACCCT | inactive: -0.0829
35 | CACCTCTG | inactive: -0.0318
36 | AGGTGGTA | inactive: 0.0814
37 | GCGAATGA | inactive: 0.0464
38 | ACGTTTCT | inactive: 0.0569
39 | AATCCAAC | inactive: 0.0622
40 | CTCTCCAC | inactive: -0.142
41 | CGCGATCA | ≥ 0.0727
42 | CCTATTAC | inactive: 0.17
43 | GCAGTAGA | inactive: -0.0281
44 | CTGTGTCA | inactive: 0.142
45 | AGATGCCC | inactive: -0.129
46 | AAGCAAAG | inactive: -0.0891
47 | CGTCTTTC | inactive: -0.0945
48 | CGACGAAC | inactive: -0.0229
49 | ACTTTCTG | inactive: 0.034
50 | CGCTTATA | inactive: -0.0421

Row | Sequence | PBM E-score
51 | TCACGAAA | ≥ 0.148
52 | ATCTAGGC | inactive: -0.0579
53 | ACGCTTCG | inactive: -0.057
54 | CGCCGGCC | inactive: -0.24
55 | AGACTCCT | inactive: -0.148
56 | CACTCCAC | inactive: -0.0577
57 | TGCCTCAA | inactive: -0.208
58 | AGACTCCC | inactive: -0.218
59 | CCCTTCGG | inactive: -0.276
60 | AAGGCTCG | inactive: -0.0926
61 | ACTACCGC | inactive: -0.0702
62 | CAACCTGC | inactive: -0.0591
63 | ACCGCGGC | inactive: -0.193
64 | ATCATGAA | inactive: 0.0136
65 | GAATGTGC | inactive: -0.00831
66 | ACTGGACC | inactive: -0.159
67 | GGCCCAAA | inactive: -0.204
68 | AAGACATG | active: 0.381
69 | CAGCGCAA | inactive: -0.0907
70 | CTTGGGGC | inactive: -0.289
71 | CGGGCCAG | inactive: -0.233
72 | AGATAAAC | inactive: 0.0686
73 | CAGTCCAG | inactive: -0.109
74 | CGTAAGCA | inactive: -0.101
75 | CAGCAGCG | inactive: -0.121

Row | Sequence | PBM E-score
76 | CCTGCGAC | inactive: -0.204
77 | CCACACCG | inactive: -0.106
78 | AGCCTCTC | ≥ -0.0654
79 | AGCCAGGG | inactive: -0.276
80 | ACTGGATG | inactive: 0.0787
81 | AATGCAGT | inactive: 0.00542
82 | CCATGTGC | inactive: -0.0035
83 | GACCCCAA | inactive: -0.155
84 | ACAGTTAT | inactive: 0.0946
85 | AGCTAGCA | inactive: -0.064
86 | AGGTCGGG | inactive: -0.168
87 | GACGCTCA | inactive: -0.118
88 | GCAGAAGC | inactive: -0.155
89 | AGTTTAAA | inactive: 0.169
90 | ATGAGGGA | inactive: -0.0343
91 | AGATGTTG | inactive: 0.203
92 | GAGAGTAA | inactive: 0.0295
93 | ATAGGTTG | inactive: 0.029
94 | ACCACGCT | inactive: -0.0652
95 | GCCCGAGC | inactive: -0.233
96 | ATCGTTAC | inactive: 0.132
97 | TCACATAA | inactive: 0.182
98 | ACAATGTA | inactive: 0.285
99 | ACGAGGTG | inactive: 0.0761
100 | ATAAAATC | inactive: 0.139

Row | Sequence | PBM E-score
101 | CAAGTATC | inactive: 0.148
102 | CATCAGGC | inactive: -0.0398
103 | GCTTCGTA | inactive: -0.0161
104 | ACATCGCA | inactive: 0.233
105 | CAAGATGC | inactive: 0.0683
106 | ATATGCTG | inactive: 0.0997
107 | GCAATACA | inactive: 0.157
108 | CCCCCATA | inactive: -0.224
109 | GCCCGTTA | inactive: -0.144
110 | ACGGGCGC | inactive: -0.222
111 | CTCTACGC | inactive: -0.116
112 | CAGCCTAC | inactive: -0.0621
113 | CCTCGCCG | inactive: -0.253
114 | CGCGGGCA | ≥ -0.0686
115 | AAGCGCTA | inactive: -0.0416
116 | AATTAACT | inactive: 0.117
117 | AAGCGTAT | inactive: 0.0255
118 | ACGCGTAC | inactive: 0.1
119 | GATACGCC | inactive: -0.133
120 | CAAACTGC | inactive: -0.0256
121 | CAGTGTGG | inactive: -0.109
122 | GCCCCTAA | inactive: -0.142
123 | AGCACGTA | inactive: 0.0899
124 | CGTGCGAG | inactive: -0.159
125 | AAAACAAG | ≥ 0.302

Row | Sequence | PBM E-score
126 | AAAGTCAG | inactive: -0.0861
127 | CGCATTAG | inactive: -0.0694
128 | CTTACGAC | inactive: 0.0222
129 | CGGCGTTA | inactive: -0.0644
130 | ATCATAAT | inactive: 0.167
131 | AACGCCTT | inactive: -0.106
132 | CAGCTCAA | inactive: -0.125
133 | ATTTGGCC | inactive: -0.0772
134 | AAGTATTC | inactive: 0.0774
135 | AGAGTGCT | ≥ 0.0592
136 | CTCGGTTC | inactive: -0.111
137 | CATTCCGC | inactive: -0.128
138 | ATAGACAG | inactive: 0.16
139 | TACGTAGA | inactive: 0.0913
140 | ACAGCTCA | inactive: 0.0446
141 | GGATATAC | inactive: 0.0874
142 | AATCCGCT | inactive: -0.0276
143 | GCACAGGA | inactive: -0.0505
144 | GTCAAAGA | inactive: 0.0779
145 | CTTTCTGA | inactive: 0.0482
146 | AACTTGAA | inactive: 0.00855
147 | CCTACCAA | inactive: -0.0124
148 | AGGGTGCA | ≥ -0.0289
149 | CGGCGTGA | inactive: -0.168
150 | CGTCGGCA | inactive: -0.106

Row | Sequence | PBM E-score
151 | CGTCGCAA | inactive: -0.108
152 | CCCTGCGA | inactive: -0.218
153 | TATGGTCA | inactive: 0.0219
154 | CCGGCAGG | inactive: -0.184
155 | CTCATATC | inactive: -0.016
156 | CCTTTGAG | inactive: -0.0619
157 | AGCTGTAA | inactive: 0.166
158 | CCGGTGCA | inactive: -0.201
159 | AACCGGGC | inactive: -0.264
160 | GATGTACC | active: 0.366
161 | GAAGCCCA | inactive: -0.162
162 | GACTACGA | inactive: -0.0174
163 | ATTCACGC | inactive: -0.00409
164 | ATGATGCC | inactive: -0.0669
165 | AGTTATGG | inactive: 0.0722
166 | ATCTCAGA | inactive: 0.00223
167 | CACCGATA | inactive: 0.0528
168 | CCCTTCAG | inactive: -0.0511
169 | CACCTAAG | inactive: 0.0447
170 | TAAGTAGA | inactive: 0.11
171 | TATAAGGA | inactive: 0.086
172 | CACCAGGC | inactive: -0.132
173 | ATAAAAAC | inactive: 0.235
174 | GATAGACC | inactive: -0.0341
175 | CAGTCTCC | inactive: -0.0795

Row | Sequence | PBM E-score
176 | CATAAAGG | inactive: 0.0282
177 | CAGTTTGC | inactive: -0.0156
178 | CCTCCTAA | inactive: 0.0234
179 | ATTGAGCC | inactive: -0.129
180 | GATGCTCC | inactive: -0.0852
181 | TCGGCGCA | inactive: -0.118
182 | GCAGCTGC | inactive: -0.262
183 | CTAGTGTA | inactive: 0.184
184 | AAAAACCC | inactive: -0.0858
185 | CCTAGAGA | inactive: -0.2
186 | CCTACGAG | inactive: 0.02
187 | GAAAGGTA | inactive: 0.0535
188 | GCGTGCCC | inactive: -0.202
189 | AGATGCTG | inactive: -0.00229
190 | TCAAGCCA | inactive: -0.0609
191 | CTCCGGGC | inactive: -0.224
192 | CCCCGAGC | inactive: -0.179
193 | CTATCAAA | inactive: 0.0453
194 | ACGGAAGG | inactive: -0.115
195 | CTCGGTTA | inactive: -0.0729
196 | TCTTGTAA | active: 0.371
197 | CACCTGGA | inactive: 0.0686
198 | CCATTTAG | inactive: -0.0316
199 | ATCCTGGG | inactive: -0.153
200 | CCGATTAG | inactive: -0.041

Row | Sequence | PBM E-score
201 | AACATAAC | active: 0.318
202 | GACTCGGA | inactive: -0.135
203 | CCATTTCG | inactive: -0.144
204 | CCACCCTA | inactive: -0.0785
205 | GGGCGCCA | inactive: -0.229
206 | CTGTCCAA | inactive: 0.128
207 | GGTCTGAC | inactive: -0.0429
208 | CGAAAGTA | inactive: 0.0221
209 | CTTACTTC | inactive: -0.0287
210 | CTCTGTCA | inactive: 0.0981
211 | CTAAAGGC | inactive: -0.0603
212 | GGGCATAC | inactive: -0.0401
213 | CGTTTTTA | inactive: 0.0882
214 | ATTCAGAC | inactive: 0.0551
215 | CCTAGTGA | inactive: -0.0536
216 | CTACGATC | inactive: 0.0466
217 | ACAATTGC | inactive: 0.162
218 | CGGCGTAG | inactive: -0.0397
219 | ACATTTAC | ≥ 0.275
220 | ACCGGGTC | inactive: -0.0442
221 | ACTGGTAT | inactive: 0.161
222 | CTTTATAA | inactive: 0.0691
223 | ACTCGACA | inactive: 0.202
